# Test results from PubChem BioAssay (NCATS).
# “And” between values parts separate entries of the source, which are not always exact repeats. Equal values may be shown once. The list shows a part of the results. The main result of the screen is listed elsewhere. These columns were measured beside it and carry no call. The list favours compounds with an active or inconclusive main result. For part of these data: The note in brackets gives the kind of curve behind each potency; many fits are weak.
# What was measured:
# [1] = qHTS Assay for Lipid Storage Modulators (AID 1519); conditions: Drosophila S3 cells, BODIPY lipid droplet/cell ratio, laser cytometry, cells loaded with oleic acid; for AC50: measured here: lipid (BODIPY) channel AC50
# In short: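 Cells seeded at 5,000 per well were treated with compounds over a concentration series and loaded with oleic acid (400 uM, as added). Lipid droplet fluorescence (488 nm excitation, 500-530 nm channel) was read by laser-scanning cytometry and normalized to 20 uM Triacsin C.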
# [2] = qHTS Assay for Modulators of Human Peripheral Myelin Protein 22 (PMP22) Expression/Activity (AID 1967); conditions: Cell-based PMP22 reporter, dual-color luciferase ratio
# In short: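 MSC80 mouse Schwann cells stably carrying Pmp22 promoter–green click beetle luciferase plus EF-alpha–red luciferase control were dosed for 24h at 37 °C. Dual-colour luminescence was filter-overlap corrected; %Activity came from green/red ratio versus untreated cells.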
# [3] = A High-Content qHTS Against Drug Library for the Identification of Small Molecules that Inhibit DYT1 Early Onset Primary Dystonia-Associated Cell Pathology (AID 1645839); conditions: HEK293 Flp-In EGFP-delE TorsinA, punctate imaging, 48 h; measured here: cell count cytotoxicity
# In short: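 High-content imaging quantified EGFP-TorsinA mislocalization in HEK293-derived cells inducibly expressing DYT1 mutant torsinA, after 48 h exposure to compound given together with tetracycline induction. Cell count served as a toxicity channel alongside %pathology.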
# [4] = qHTS Assay for Inhibitors of PDE-IV (AID 607); conditions: HEK293 ACTOne CNG channel cells, membrane potential fluorescence; measured here: parental cell counter-screen;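 note: parental cells stimulated with forskolin 10 µM plus RO 20-1724 100 µM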
# In short: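 The readout is membrane depolarisation from a cAMP-sensing CNG channel, detected with a potential dye at ex 535/em 590. Cells were HEK293-derived (endogenous PDE-IV) at 1000 cells/well, titrated up to 22.9 uM final.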
# [5] = qHTS assay for small molecule antagonists of glucocorticoid receptor signaling (AID 588533); conditions: HeLa MMTV-bla, GRE beta-lactamase ratio, antagonist mode, 18 h; measured here: W530 channel AC50;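 note: cells stimulated with 2 nM dexamethasone as agonist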
# [6] = qHTS assay for small molecule antagonists of peroxisome proliferator-activated receptor delta signaling (AID 588535); conditions: HEK293T PPARd-UAS-bla, beta-lactamase FRET ratio, 18 h; 460 nm channel;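 note: cells co-treated with a PPAR-delta agonist as stimulator during compound exposure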
# In short: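 Antagonist-mode qHTS using GeneBLAzer PPAR-delta-UAS-bla HEK293T cells; compound exposure 18 hrs at 37 C over a titration. Ratiometric CCF4 fluorescence at 460/530 nm; concentration-response points fitted to the Hill equation.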
# [7] = qHTS assay for small molecule antagonists of vitamin D receptor signaling (AID 588541); conditions: HEK293T VDR-UAS-bla, beta-lactamase ratio, antagonist mode; measured here: W460 blue channel (cell viability)
# [8] = qHTS assay for small molecule agonists of retinoid X receptor alpha signaling (AID 588544); conditions: HEK293T RXRa-UAS-bla, beta-lactamase reporter, 18 h; 530 nm emission
# [9] = qHTS assay for small molecule antagonists of retinoid X receptor alpha signaling (AID 588546); conditions: HEK293T RXRa-UAS-bla, beta-lactamase ratio, antagonist mode; measured here: W530 green channel, cytotoxicity proxy;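 note: cells stimulated with 9-cis-retinoic acid as agonist; % is set by controls: 0 for no effect and ±100 for the full control effect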
# In short: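 Beta-lactamase reporter inhibition, read as CCF4 fluorescence ratio (ex 405, em 460/530 nm) after 2 h at RT. HEK293T UAS-bla cells, 2500/well, were stimulated with 9-cis-RA at 500 or 100 nM final alongside test compound for 18 h at 37 C.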
# [10] = S16 Schwann cell PMP22 intronic element beta-lactamase assay (AID 624044); conditions: S16 rat Schwann cells, PMP22 element beta-lactamase FRET, 24 h; measured here: 460 nm blue channel; note: nearly all actives have a fitted effect of over 15% in size
# In short: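 Beta-lactamase reporter under a PMP22 intronic regulatory element in stable S16 rat Schwann cells; 24 h compound exposure. 460 nm blue signal normalized between DMSO (0%) and potassium clavulanate, with 535 nm FRET tracking viability; curves classed by r2 and response.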
# [11] = qHTS Validation Assay to Find Inhibitors of Chronic Active B-Cell Receptor Signaling (AID 485345); conditions: ABC-DLBCL cells, chronic BCR signaling reporter
# In short: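 Read-out: ratio of filter-corrected green (IkappaBalpha fusion) to red (native) luciferase signal in doxycycline-induced TMD8 cells after 4 h at 37C. Titration spanned 46 uM–3 nM; Data were normalised to basal cells and 10 uM MG-132 wells.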
# [12] = qHTS assay for small molecule antagonists of peroxisome proliferator-activated receptor gamma signaling (AID 588537); conditions: HEK293 PPARg-UAS-bla, beta-lactamase ratio, antagonist mode; measured here: W460 blue channel
# In short: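 Cell-based beta-lactamase assay; GW9662 served as the antagonist control. Stimulation used rosiglitazone, final 50 nM, 16 h, 37 C.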
# [13] = qHTS assay for small molecule antagonists of androgen receptor signaling (AID 588516); conditions: AR-UAS-bla HEK293, beta-lactamase ratio, antagonist mode, 16 h; measured here: W460 blue channel fit
# In short: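 Cells were plated and incubated 5 h, compounds added in titration, then R1881 (10 nM final) as agonist. After 16 h at 37 C, CCF4 substrate was loaded for 2 h at room temperature and fluorescence measured.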
# [14] = measured here: cell count channel max response
# [15] = measured here: lipid channel max response
# [16] = measured here: red reporter channel AC50, EF-alpha promoter control reporter in MSC80 mouse Schwann cells
# [17] = measured here: green reporter channel AC50, mouse Pmp22 promoter in mouse Schwann cells
# Tags give direction and shape of the fitted curve.
structure (smiles),measurement,setting,value
CC(C)Oc1cccnc1N(C)C1CCN(Cc2ccccc2)CC1,max response,[1]; [14],-26.6%
same,max response,[1]; [15],-27.9%
same,AC50,[2]; [16],"84.9 µM [falling, single point]"
C[C@]12CC[C@@H]3c4ccc(OC(=O)N(CCCl)CCCl)cc4CC[C@H]3[C@@H]1CC[C@@H]2O,AC50,[3],"10 µM [falling, partial curve, poor fit]"
CC(=O)OC1(c2ccccc2)CCN(CCc2ccccc2)CC1,AC50,[3],"1.41 µM [falling, full curve, poor fit]"
O=c1c(C2CC(c3ccc(-c4ccc(Br)cc4)cc3)Cc3ccccc32)c(O)sc2ccccc12 (centres undefined),AC50,[3],"12.6 µM [falling, partial curve, poor fit]"
COC(=O)c1cc2c(cn1)[nH]c1ccccc12,max response,[1]; [14],81.7%
same,max response,[1]; [15],84.8%
same,AC50,[2]; [16],"67.5 µM [falling, partial curve]"
NC(CP(=O)(O)O)C(=O)O (centres undefined),max response,[1]; [14],36.3%
same,max response,[1]; [15],37.8%
same,AC50,[2]; [16],"84.9 µM [falling, single point]"
C#CCOC(=O)C1=CCCN(C)C1,max response,[1]; [14],48.6%
same,max response,[1]; [15],47.1%
same,AC50,[2]; [17],"84.9 µM [falling, single point]"
same,AC50,[2]; [16],"84.9 µM [falling, single point]"
NNCc1cccc(O)c1,max response,[1]; [14],64.2%
same,max response,[1]; [15],54.5%
same,AC50,[2]; [16],"21.3 µM [falling, partial curve]"
CC(C)(Cc1c[nH]c2ccc(Cl)cc12)NCCOc1ccccc1OCC1CC1,AC50,[4],"25.1 µM [rising, single point]"
same,max response,[1]; [14],-47.8%
same,max response,[1]; [15],-106%
CNCCC(Oc1ccc(C(F)(F)F)cc1)c1ccccc1 (centres undefined),max response,[1]; [14],42.4%
same,max response,[1]; [15],41.9%
same,AC50,[2]; [17],"33.8 µM [falling, full curve]"
same,AC50,[2]; [16],"33.8 µM [falling, full curve]"
CN(C)CCc1c[nH]c2ccccc12,AC50,[3],"112 µM [falling, single point]"
CC1N=C(N)OC1c1ccccc1 (centres undefined),AC50,[3],"35.5 µM [falling, single point]"
COc1cc(CC(C)N)c(OC)cc1I (centres undefined),max response,[1]; [14],34.2%
same,max response,[1]; [15],38.6%
same,AC50,[2]; [17],"67.5 µM [falling, partial curve]"
same,AC50,[2]; [16],"67.5 µM [falling, partial curve]"
CCCCCCCCCCCCCCCC[N+](C)(C)C,AC50,[1],"10 µM [falling, partial curve]"
same,AC50,[5],"50.1 µM [falling, partial curve, poor fit]"
same,max response,[6],143%
same,AC50,[7],"50.1 µM [falling, single point]"
same,max response,[8],-68.7% and -4.32%
same,max response,[9],-53.9%
same,AC50,[10],"25.1 µM [falling, single point]"
same,AC50,[3],"7.08 µM [falling, partial curve, poor fit]"
CC[C@H](O)C(C[C@H](C)N(C)C)(c1ccccc1)c1ccccc1,AC50,[3],"39.8 µM [falling, partial curve, poor fit]"
COc1ccc2c(c1O)-c1cccc3c1C(C2)N(C)CC3 (centres undefined),max response,[1]; [14],37.5%
same,max response,[1]; [15],39.6%
same,AC50,[2]; [17],"37.9 µM [falling, partial curve]"
same,AC50,[2]; [16],"67.5 µM [falling, partial curve]"
Clc1cnc(Oc2ccc(Oc3ncc(Cl)cc3Cl)cc2)c(Cl)c1,max response,[1]; [14],36.7%
same,max response,[1]; [15],36.9%
same,max response,[8],-7.54%
CCCn1c(=O)c2[nH]c(C3CCCC3)nc2n(CCCOC(=O)c2ccc(S(=O)(=O)F)cc2)c1=O,max response,[1]; [14],45%
same,max response,[1]; [15],44.3%
same,AC50,[2]; [17],"75.7 µM [falling, partial curve]"
same,AC50,[2]; [16],"47.8 µM [falling, partial curve, poor fit]"
same,AC50,[11]; measured here: CBG/CBR ratio read-out,"29.1 µM [falling, single point]"
same,AC50,[11]; measured here: CBR control luciferase (viability counter),"9.2 µM [falling, partial curve]"
CC(C)c1c(CN(C)C(C)Cc2ccccc2)n(C)n(-c2ccccc2)c1=O (centres undefined),AC50,[3],"1.26 µM [falling, full curve]"
NCC(O)c1ccc(O)cc1 (centres undefined),max response,[1]; [14],52.8%
same,max response,[1]; [15],56.4%
same,AC50,[12],"50.1 µM [rising, single point]"
COc1cc(CC(C)N)c(OC)cc1Br (centres undefined),AC50,[3],"63.1 µM [falling, single point]"
COc1cc(C[C@@H](C)N)c(OC)cc1I,max response,[1]; [14],42.9%
same,max response,[1]; [15],42.9%
same,AC50,[2]; [17],"67.5 µM [falling, partial curve]"
same,AC50,[2]; [16],"84.9 µM [falling, single point]"
Cc1ncc(CNC(=O)N(CCCl)N=O)c(N)n1,max response,[1]; [14],34.1%
same,max response,[1]; [15],36.3%
same,AC50,[2]; [16],"84.9 µM [falling, single point]"
CCCN(CCC)c1c([N+](=O)[O-])cc(C(F)(F)F)cc1[N+](=O)[O-],max response,[1]; [14],-64.9%
same,max response,[1]; [15],-87.3%
same,AC50,[13],"11.2 µM [falling, partial curve, poor fit]"
same,max response,[6],-15.6%
c1ccc([C@H]2CNCc3ccccc32)cc1,AC50,[4],"15.8 µM [rising, partial curve]"
same,max response,[1]; [14],67.1%
same,max response,[1]; [15],88.4%
COP(=S)(OC)Oc1ccc([N+](=O)[O-])cc1,AC50,[1],"17.8 µM [falling, single point]"
same,max response,[6],-0.273%
same,AC50,[12],"35.5 µM [falling, partial curve, poor fit]"
NCCCP(=O)(O)O,max response,[1]; [14],47.7%
same,max response,[1]; [15],46.8%
same,AC50,[2]; [16],"95.3 µM [falling, single point]"
CCN[C@@H](C)Cc1ccccc1,AC50,[3],"63.1 µM [falling, single point]"
CN1C[C@@H](CS(=O)(=O)N(C)C)C[C@@H]2c3cccc4c3c(cn4C)C[C@H]21,max response,[1]; [14],67.8%
same,max response,[1]; [15],73.5%
same,AC50,[2]; [17],"84.9 µM [falling, single point]"
same,AC50,[2]; [16],"84.9 µM [falling, single point]"
